PubChem BioAssay (NCI)
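96-well plates; 48 h exposure; 5 concentrations. Endpoints by linear interpolation between flanking doses. Not reached: highest tested concentration assigned. TGI: total growth inhibition.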 For part of its entries the source gives two or more results. Only these are listed. An entry can have further records. The tests behind the records often covered other concentration ranges, not given here; a value can be the end of its range.

Key:
Assay in all cases: inhibition of tumour cell growth, NCI panel, 48 h
BT-549 breast = test system: BT-549 breast
KM12 colon = test system: KM12 colon
RPMI-8226 leukemia = test system: RPMI-8226 leukemia
NCI-H226 lung = test system: NCI-H226 lung
SR leukemia = test system: SR leukemia
K-562 leukemia = test system: K-562 leukemia
SK-MEL-5 melanoma = test system: SK-MEL-5 melanoma
HT29 colon = test system: HT29 colon
OVCAR-5 ovarian = test system: OVCAR-5 ovarian
786-0 renal = test system: 786-0 renal
KM20L2 colon = test system: KM20L2 colon
NCI-H23 lung = test system: NCI-H23 lung
DLD-1 colon = test system: DLD-1 colon
OVCAR-8 ovarian = test system: OVCAR-8 ovarian

Structure (SMILES) | TGI (BT-549 breast) | TGI (KM12 colon) | TGI (RPMI-8226 leukemia) | TGI (NCI-H226 lung) | TGI (SR leukemia) | TGI (K-562 leukemia) | TGI (SK-MEL-5 melanoma) | TGI (HT29 colon) | TGI (OVCAR-5 ovarian) | TGI (786-0 renal) | TGI (KM20L2 colon) | TGI (NCI-H23 lung) | TGI (DLD-1 colon) | TGI (OVCAR-8 ovarian)
COc1ccc(-c2csc3c2-n2cccc2C3=O)cc1 | 3.72 µM and > 100 µM | 1.63 µM and > 26.3 µM | 1.49 µM and 35.9 µM | 461 nM and > 47.3 µM | 17 nM and > 37.1 µM | 48.6 nM and > 100 µM | 98.3 nM and 1.71 µM | 109 nM and > 100 µM | – | – | – | – | – | –
CC[C@@]1(OP(=O)(O)O)C(=O)OCc2c1cc1n(c2=O)Cc2cc3ccccc3nc2-1 | – | – | – | – | – | – | – | 4.4 µM and > 100 µM | 2.48 µM and 54.9 µM | 7.75 µM and 298 nM | 3.73 µM and > 100 µM | 296 nM and 13 µM | 2.45 µM and 73.4 µM | 2.11 µM and > 100 µM
